Assay results taken from PubChem BioAssay (NCI).
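Test compounds were applied to cells in 96-well plates for 48 hours at 5 doses. Here, GI50 denotes the concentration required for 50% inhibition of growth. TGI: total growth inhibition.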

System: NCI-H322M lung
Assay: DTP human tumour cell line panel, 48 h

Compound | GI50 [µM] | TGI [µM]
CC(C)(C)c1ccc(CC(=O)Nc2sc3c(c2C(N)=O)CCC(=O)C3)cc1 | 4.26 | 22.5
c1ccc2c(NCCCN3CCOCC3)c3oc4ccccc4c3nc2c1 | 0.964 | 6.26
